Laboratory results taken from PubChem BioAssay AID1963432 (Molecular Pharmacology Branch, DTP, NCI, 2024).
For part of its entries the source gives two or more results. Only these are listed. There may be further records. The values listed for one entry are repeats in other runs, samples, wells, individuals or studies. A date in brackets names the month of the test.

Test system: SYO-1 complex spheroid growth, percent test/control
Experiment: Anticancer human tumor SYO-1 cell line growth inhibition [Asc];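 also: compound exposure lasted 7 days after spheroids grew 3 days; 100% = DMSO vehicle control viability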
Settings: stronger effect = lower value
Description: Multicellular complex tumor spheroid response to apoptosis pathway targeting inhibitors Alrizomadlin, Pelcitoclax, and Dasminapant in combination with a variety of drugs and investigational agents in selected tumor cell lines
The MDM2 inhibitor alrizomadlin, the Bcl-2/Bcl-xL inhibitor pelcitoclax, and the IAPs inhibitor dasminapant were evaluated both individually and in combination with standard of care and investigational anticancer small molecules within a complex spheroid model of solid tumors. . Complex spheroids include a stromal component modeled by human endothelial cells (HUVEC) and fibroblasts modeled by human mesenchymal stem cells (MSCs). The concentration ranges selected for each drug and investigational agent were based upon clinically achievable concentrations if the clinical Cmax of the agent was known.
Compounds. […] If the clinical Cmax for an agent had not been determined, the highest concentration tested was 10 microM. […]

Row | Compound | viability, T/C (compound alone 0.1 µM) | viability, T/C (compound alone 0.0949 µM)
1 | CNC(C)C(=O)NC1CN(S(=O)(=O)c2cccc(S(=O)(=O)N3CCC4CCC(C(=O)NC(c5ccccc5)c5ccccc5)N4C(=O)C(NC(=O)C(C)NC)C3)c2)CCC2CCC(C(=O)NC(c3ccccc3)c3ccccc3)N2C1=O (configuration not stated) | 92.5, 105, 98, 84.7, 86.9, 103, 96.1, 94.6, 92.3, 84, 91.7% [2022-10] and 112%, 96.6%, 110% [2022-11] | –
2 | CCN1C(C(=O)NC23CCC(C(=O)O)(CC2)CC3)C(c2cccc(Cl)c2F)C2(C(=O)Nc3cc(Cl)ccc32)C12CCCCC2 (configuration not stated) | – | 66% [2022-10] and 95.3, 85.3, 81.2, 85.5, 84.1, 87.6, 87, 81.5% [2022-11]
